Sequences and labels used below:
B1: LINE1-mini (parent)
chain: GGCAGAGCUCAACACAGCGUGGCAAAGUGGCUGUGGCUAGACUGCC

Read counts are not given, so values of variants with three or more changes are uncertain.

The variants in the data set derive from B1. As to the kind of experiment: self-cleavage, relative activity (ratio to wild type); higher = more cleavage; in vitro, sequencing; the parent is a self-cleaving ribozyme.
Take G1U C18A G33A A39U: the self-cleavage stood at 0. For G1U C3G C8A C10A, the self-cleavage was 0.04. Consider G1U C13A A41C G44U, for which the self-cleavage is 0.01. Take G1U C10A G17A A24U G44U: the self-cleavage was 0.02. With G1U G5U C13A, the self-cleavage came out at 0.08. Consider G1U G5U C10U G30C, for which the self-cleavage stood at 0.03.

On to G1U G2A C13G G21A G35U, for which the self-cleavage came to 0.2. As to G1U C18A U32A, the self-cleavage was determined as 0.08. For G1U G7U C8A U20G C37A, the self-cleavage is 0.03.

In the case of G1U C10A C31G G40U, the self-cleavage was found to be 0.01. In the case of G1U A26G G27C U43G C45U, the self-cleavage worked out at 0.09. With G1U C10G G27C C46U, the self-cleavage came out at 0.01.

Consider G1U A26U G29C U43A, for which the self-cleavage was determined as 0.01. As for G1U G5A U9G C46G, the figure is 0.03; as for G1U C18U G22U U32G G35A A39C C46A, 0.02.

With G1U C8U U9C U43G, the self-cleavage was determined as 0.02. In the case of G1U G5A G21C A24U A25C G30A A39U, the self-cleavage was 0.05.

As to G1U C18U A25C, the self-cleavage stood at 0.09. As for G1U C8G C10A, the figure is 0. With G1U C8G U43A C46G, the self-cleavage is 0.03.

Consider G1U G5U G7C C8G C15A G36C A41U C42A G44U, for which the self-cleavage worked out at 0.07.

For the variant G1U C15G G29U C46G, the self-cleavage was 0.08.

For the variant G1U G5U A12G G27A, the self-cleavage came to 0.07. Consider G1U G7A A14G G17C C23A, for which the self-cleavage is 0.08. As for G1U C10G G29C, the figure is 0.01. For G1U G5C A12U A16C G33C C42G C46U, the self-cleavage turned out to be 0.03. As for G1U G2A G7C G21A G35C G44A, the figure is 0.04; as for G1U G2C A14U G22U U38G U43A, 0.02; as for G1U G7A C8U C31A, 0.11. On to G1U C15G C46A, for which the self-cleavage amounted to 0.14. As to G1U G5A A39G C42G, the self-cleavage is 0.02. Take G1U C15G U20C G29A G44A: the self-cleavage was 0.01. As for G1U C3G C10G C18G, the self-cleavage was determined as 0.

In the case of G1U G2U A41G, the self-cleavage came out at 0.02.

In the case of G1U C8A C18G, the self-cleavage came to 0.22. In the case of G1U G7U U9A A11C C18A G35A U38G U43G, the self-cleavage amounted to 0.

In the case of G1U G5C A14U G44U, the self-cleavage turned out to be 0.01. As for G1U G7U G19U U20C U32G C37U G40U, the figure is 0.02.

Turning to G1U G7A G17U A26U U32G G36U, the self-cleavage amounted to 0.04. As for G1U C3G C13U G17C C42U C45U, the figure is 0.03. On to G1U C3U C8U G19U, for which the self-cleavage was found to be 0.68. For G1U G2C G5C A25U U28A U34C, the self-cleavage was found to be 0.01. Regarding G1U G5U U28G, the self-cleavage amounted to 0.02.

Turning to G1U C15U C23U, the self-cleavage stood at 2.01.

As to G1U C18A G36C, the self-cleavage was found to be 0.02.

Regarding G1U C15A G35U, the self-cleavage was determined as 0.04. For the variant G1U C31A G35U A41U, the self-cleavage was 0.04. As for G1U C23A G30U A39C G44U, the figure is 0.07. Consider G1U C23G G35C, for which the self-cleavage was 0.11. Turning to G1U C8U C15U, the self-cleavage amounted to 0.08. For G1U G7U C18A G22C A25U C31U, the self-cleavage was 0.01. As to G1U C18G G29C, the self-cleavage came out at 0.03.

As to G1U G5U A6U C8A G27U, the self-cleavage was determined as 0.06.

Consider G1U C18U U32A, for which the self-cleavage came to 0.01.

Take G1U C8G U20C C23U A24C A25U G33C: the self-cleavage is 0.04. As for G1U C13U G19U U20G C45U, the figure is 0.05; as for G1U C3U G19A A39C, 0.14. Turning to G1U C3G A16G G27C U28A G36C, the self-cleavage stood at 0.03. Regarding G1U G5C G19C C37U, the self-cleavage was found to be 0.03. In the case of G1U C10G C13U C15A G17C A26G G33U C45A C46G, the self-cleavage came out at 0.01.

With G1U C10G A16G C18G U28A G33U, the self-cleavage is 0. Take G1U C10U A39G: the self-cleavage stood at 0.04. With G1U G7U C10A A41C, the self-cleavage turned out to be 0.02. Regarding G1U C18A U20A G21C A39G, the self-cleavage came to 0.03. In the case of G1U G2U A11C A14C C37G, the self-cleavage turned out to be 0. In the case of G1U C42U U43G, the self-cleavage was found to be 0.1. As for G1U G7A A11C U20G C23G C37A, the self-cleavage came to 0. Take G1U C15A U32C G35C: the self-cleavage turned out to be 0.01.

Regarding G1U G2U U28A, the self-cleavage came to 0.05. Turning to G1U C10A A16C, the self-cleavage worked out at 0.04. In the case of G1U C3A G5U G7C C15G, the self-cleavage is 0.28. As for G1U C15G U28G G35A, the self-cleavage came out at 0.01.

G1U G2C G5C C18G G27U A41U: the self-cleavage is 0.02. In the case of G1U C3U G7C U32C, the self-cleavage was 0.05. As for G1U G7A C10A G40A, the self-cleavage turned out to be 0. As for G1U C15A A16C A39G, the figure is 0. For the variant G1U C3G A6C U9G G29U, the self-cleavage came out at 0.02. As for G1U G7U C15A C31U G33A C42A, the figure is 0.13. As for G1U G5C U9C G30U G35A C37U, the figure is 0.02; as for G1U C13G A41G, 0.3. In the case of G1U G7U C10G A16G C37G G44U, the self-cleavage came to 0. As for G1U C18U U20A, the figure is 0.29; as for G1U G2A G7U G44C, 0.09. In the case of G1U C8A C45U, the self-cleavage came to 0.17. For the variant G1U G2U G7U C18A C23G A25U A26C U28C G44C, the self-cleavage amounted to 0.01. Consider G1U C13G U34C, for which the self-cleavage was 0.04. As to G1U G2U G5U C13U, the self-cleavage came out at 0.02. For G1U G7C G22U G30U G44U, the self-cleavage is 0.16. As for G1U C15A A25U, the self-cleavage amounted to 0.04.

Take G1U G5U A39C G44C: the self-cleavage turned out to be 0.01. Regarding G1U C8A G22U, the self-cleavage was found to be 0.08.

Regarding G1U G5U C45A, the self-cleavage is 0.05. As to G1U A26G G30A, the self-cleavage was 1.49. Turning to G1U C3G C23A, the self-cleavage was found to be 0.2. Take G1U C15A G36U A39U A41C: the self-cleavage was found to be 0.06. In the case of G1U G5U C18G G36C G44C, the self-cleavage stood at 0.

On to G1U C13U G21A U32G, for which the self-cleavage turned out to be 0.04. For G1U C3U A12U C18A, the self-cleavage came out at 0.14. As for G1U C10G G22C C23A C31A, the figure is 0; as for G1U C15A C31G A41G U43A, 0.1; as for G1U C3U A12G G33U U34G, 0.13. In the case of G1U G2A A6C C8U C23U G33C, the self-cleavage worked out at 0.37.

For G1U G5U U9C G22U, the self-cleavage turned out to be 0.02. G1U G5U A6G A12C C23U: the self-cleavage worked out at 0.02. Regarding G1U G2A G17C G30A G44U C46A, the self-cleavage was found to be 0.04.

For G1U C10U A12U A25U, the self-cleavage was found to be 0.03. Take G1U G5A G44C: the self-cleavage came out at 0.1. As for G1U G7A C23G A25C U28A, the figure is 0.1; as for G1U G7U C15U G27U, 0.04; as for G1U C8A U20G G21U U38G, 0.02. For the variant G1U C8A G27C U32G C37A A39G, the self-cleavage amounted to 0.04. As for G1U G2U A4G C15U C45U, the figure is 0.11.

Regarding G1U C10A C15U U32C C46A, the self-cleavage amounted to 0.01. Regarding G1U C37U U38A, the self-cleavage came to 0.25. For the variant G1U C23A A24U, the self-cleavage amounted to 0.2. As for G1U C3A A41U, the figure is 0.22; as for G1U G7C C10U A12U C15U U28C G29C G35A C37G, 0.05; as for G1U C8A C18U U34A, 0.05. Regarding G1U G2C G5A A14G C23G G27U, the self-cleavage was found to be 0.03.

Consider G1U C3A A11G C31A, for which the self-cleavage came to 0.01.

On to G1U G7A A14C, for which the self-cleavage stood at 0.05. As for G1U C15G G35A, the self-cleavage is 0.01. As for G1U G5C G27A C31A C37U, the figure is 0.08. Turning to G1U C8G G22C A26C A39G, the self-cleavage was found to be 0.01. As for G1U C37G A39C G40U, the self-cleavage is 0.01. In the case of G1U C3G A16G U34G U38G G40A, the self-cleavage amounted to 0.01. Consider G1U C3U G22A G40C, for which the self-cleavage was 0.06. Turning to G1U C10U G44A, the self-cleavage stood at 0.11. Regarding G1U C3U U9G C13A U20A G35C, the self-cleavage amounted to 0.04. Consider G1U G5U G21U G40U, for which the self-cleavage stood at 0.41. As for G1U C10G A25C G36A A41G, the self-cleavage is 0.02. As for G1U G2U C3A U9A, the figure is 0.25; as for G1U G5U G21U U43C, 0.07; as for G1U C10A U20A, 0. Turning to G1U G7A A11U C18A G44C, the self-cleavage worked out at 0.01.

Turning to G1U C8U U38C, the self-cleavage turned out to be 0.01. G1U C3G A11G C42U: the self-cleavage came to 0. As for G1U C13A A25G C46U, the self-cleavage came to 0.02. Take G1U C15U G17A C18G C37U C42G: the self-cleavage is 0.02. As for G1U G5C C13U G19C, the figure is 0.17; as for G1U C15A G40U, 0.05; as for G1U C18G G29A C37G, 0.01. On to G1U C3U A39U A41G, for which the self-cleavage was determined as 0.03.

Turning to G1U G5C C8G G19A G21U G22U G29U G40U, the self-cleavage is 0.01. As for G1U G5A G21C C23U G29U, the figure is 0.04; as for G1U G5U A14U C23G G30C U32G, 0; as for G1U C3U C13G, 0.15.

As for G1U G2A G21A A25U G30U G35U G44U, the self-cleavage came out at 0.12.

As to G1U G7A G21U A25U, the self-cleavage worked out at 0.05. As to G1U G2U C8G G19U C23A G35A A39G, the self-cleavage came out at 0.06. Regarding G1U C8G U34A G44U, the self-cleavage was determined as 0.02.

As to G1U C31A C42U, the self-cleavage is 0.01.

G1U C13A G27A G29U G33C C45U: the self-cleavage stood at 0.02. With G1U C13U C42G, the self-cleavage was determined as 0.15.

G1U C10U G30A: the self-cleavage was 0.15. On to G1U C3A G36A, for which the self-cleavage turned out to be 2.

Turning to G1U G2U A11G G19A G22U, the self-cleavage stood at 0.01. As for G1U C10G G29U A39U, the figure is 0.05; as for G1U C8A G21A C42U, 0.4. On to G1U C10U U20A C23A, for which the self-cleavage was found to be 0.08. Turning to G1U C3G C37G, the self-cleavage is 0.04. With G1U G5C C37U C45U, the self-cleavage worked out at 0.03. With G1U C3U U20A G40A C42U U43G, the self-cleavage came to 0.17. G1U C8A U20A A24C G29C G36C: the self-cleavage turned out to be 0.01. As for G1U C3G G7C C18G A24G G35U A39U G44A C46A, the figure is 0.36; as for G1U C13U C31G C42A, 0.

As to G1U G7C G17A G33C, the self-cleavage came to 0.06.

(Values after the RNAGym collection of RNA variant scans (doi:10.7554/elife.90254).)
